Test results from article PMC12889043.
No constants are given. Whether binding was seen depends on the method and setting. Binding seen in cells or lysates may run through a third protein. Some binding calls cover weakened binding; strength is not graded here. Tags and fused reporters may be left off the sequences shown.

Chains of the proteins cited; added tags and fusions are not shown.
UniProt Q7Z434: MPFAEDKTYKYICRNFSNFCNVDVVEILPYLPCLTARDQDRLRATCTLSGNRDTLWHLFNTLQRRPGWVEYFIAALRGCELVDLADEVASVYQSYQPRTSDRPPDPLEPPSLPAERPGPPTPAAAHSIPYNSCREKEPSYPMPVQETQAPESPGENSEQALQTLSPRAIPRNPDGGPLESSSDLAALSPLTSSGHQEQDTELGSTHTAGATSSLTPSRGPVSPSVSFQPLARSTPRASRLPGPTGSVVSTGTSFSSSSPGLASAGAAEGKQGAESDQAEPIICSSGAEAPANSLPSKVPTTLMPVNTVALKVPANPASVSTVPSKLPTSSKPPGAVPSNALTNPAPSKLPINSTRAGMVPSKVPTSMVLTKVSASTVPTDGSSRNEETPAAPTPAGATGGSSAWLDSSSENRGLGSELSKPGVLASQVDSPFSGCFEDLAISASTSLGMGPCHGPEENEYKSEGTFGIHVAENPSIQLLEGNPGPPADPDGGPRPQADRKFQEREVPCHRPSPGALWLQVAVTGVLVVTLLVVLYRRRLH
UniProt P19474: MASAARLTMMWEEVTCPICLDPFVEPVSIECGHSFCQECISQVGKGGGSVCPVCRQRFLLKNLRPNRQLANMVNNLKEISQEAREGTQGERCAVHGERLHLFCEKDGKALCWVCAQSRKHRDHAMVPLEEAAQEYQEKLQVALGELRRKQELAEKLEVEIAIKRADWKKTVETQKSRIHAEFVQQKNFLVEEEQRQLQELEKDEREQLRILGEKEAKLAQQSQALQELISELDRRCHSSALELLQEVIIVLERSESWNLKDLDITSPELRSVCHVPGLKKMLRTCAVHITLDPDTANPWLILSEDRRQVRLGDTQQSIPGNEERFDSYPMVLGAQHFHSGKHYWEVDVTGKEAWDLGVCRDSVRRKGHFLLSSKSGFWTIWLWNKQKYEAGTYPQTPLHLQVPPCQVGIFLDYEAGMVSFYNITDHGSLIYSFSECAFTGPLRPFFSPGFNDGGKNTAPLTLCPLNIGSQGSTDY

How the values were obtained:
[1] = biological target: T1, Flag-tagged full-length human RND3 (pcDNA3.1-Flag-hRND3) (human) (UniProt P61587); assay: co-IP; HEK293T co-transfected with Flag-RND3 and one HA-tagged adaptor, 24 h; RIPA lysate; anti-Flag agarose affinity gel overnight at 4 C, washed with cold TBS; blot with anti-HA
T1 sequence: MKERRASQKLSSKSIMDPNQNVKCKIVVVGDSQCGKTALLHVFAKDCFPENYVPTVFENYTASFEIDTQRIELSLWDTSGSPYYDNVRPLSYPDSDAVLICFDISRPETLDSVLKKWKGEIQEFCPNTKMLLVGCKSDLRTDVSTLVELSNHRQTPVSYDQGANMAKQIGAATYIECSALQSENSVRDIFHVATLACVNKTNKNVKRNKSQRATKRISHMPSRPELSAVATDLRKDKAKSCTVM

[2] = biological target: T2, HA-IKKε (IκB kinase epsilon) (UniProt Q14164); assay: co-IP; HEK293T transfected with Myc-hRND3, HA-IKKε and Flag-TRIM21; after 12 h infected with EMCV at MOI 0.01 for 12 h; IP with anti-HA antibody (1:100); blot with anti-Flag
T2 sequence: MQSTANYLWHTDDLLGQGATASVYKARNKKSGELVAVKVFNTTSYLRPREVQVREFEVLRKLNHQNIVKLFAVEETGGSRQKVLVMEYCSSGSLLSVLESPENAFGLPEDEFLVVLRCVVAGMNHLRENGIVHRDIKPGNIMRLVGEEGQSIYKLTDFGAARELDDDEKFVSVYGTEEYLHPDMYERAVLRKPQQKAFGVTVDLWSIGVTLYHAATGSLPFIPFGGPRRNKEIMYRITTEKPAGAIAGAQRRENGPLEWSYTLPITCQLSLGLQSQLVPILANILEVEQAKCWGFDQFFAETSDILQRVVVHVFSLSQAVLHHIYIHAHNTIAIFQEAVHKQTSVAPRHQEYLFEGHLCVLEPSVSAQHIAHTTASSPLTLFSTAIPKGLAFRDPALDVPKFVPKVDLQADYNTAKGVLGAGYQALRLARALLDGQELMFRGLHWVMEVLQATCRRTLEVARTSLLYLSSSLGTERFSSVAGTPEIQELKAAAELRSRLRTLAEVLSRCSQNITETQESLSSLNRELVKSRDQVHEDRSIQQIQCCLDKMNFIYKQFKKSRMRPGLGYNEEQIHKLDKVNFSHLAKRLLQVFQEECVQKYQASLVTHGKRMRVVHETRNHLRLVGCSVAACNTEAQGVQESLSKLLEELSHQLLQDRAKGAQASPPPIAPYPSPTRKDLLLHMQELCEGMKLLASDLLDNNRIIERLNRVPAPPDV

Row | binding [1] | binding [2] | Substance
1 | no binding |  | HA-MAVS (from UniProt Q7Z434 1-540)
2 |  | binds | Flag-TRIM21 (from UniProt P19474 1-475)
